Measured values from a collection of fitness landscapes (doi:10.1126/science.1257360).
Some of the results follow.

B1: PhoQ; a variant is named by its letters at X, in order, P23837 (parent)
chain: MKKLLRLFFPLSLRVRFLLATAAVVLVLSLAYGMVALIGYSVSFDKTTFRLLRGESNLFYTLAKWENNKLHVELPENIDKQSPTMTLIYDENGQLLWAQRDVPWLMKMIQPDWLKSNGFHEIEADVNDTSLLLSGDHSIQQQLQEVREDDDDAEMTHSVAVNVYPATSRMPKLTIVVVDTIPVELKSSYMVWSWFIYVLSANLLLVIPLLWVAAWWSLRPIEALAKEVRELEEHNRELLNPATTRELTSLVRNLNRLLKSERERYDKYRTTLTDLTHSLKTPLXXLQXXLRSLRSEKMSVSDAEPVMLEQISRISQQIGYYLHRASMRGGTLLSRELHPVAPLLDNLTSALNKVYQRKGVNISLDISPEISFVGEQNDFVEVMGNVLDNACKYCLEFVEISARQTDEHLYIVVEDDGPGIPLSKREVIFDRGQRVDTLRPGQGVGLAVAREITEQYEGKIVAGESMLGGARMEVIFGRQHSAPKDE

Variants of: B1
Experiment: enrichment ratio after two sorts for PhoP signalling (ratio (wild type AVST 3.29)); higher = more functional
Conditions: with PhoP (E. coli)

| Variant | enrichment ratio |
| --- | --- |
| VPSS | ≤ 0.25 |
| GTTQ | ≤ 0.25 |
| WFVN | ≤ 0.25 |
| WHLH | ≤ 0.25 |
| KQPW | ≤ 0.25 |
| QNTC | ≤ 0.25 |
| YWVT | ≤ 0.25 |
| RMNN | ≤ 0.25 |
| PMCH | ≤ 0.25 |
| KRNR | ≤ 0.25 |
| VHTL | ≤ 0.25 |
| VIVW | ≤ 0.25 |
| LNDN | ≤ 0.25 |
| WDGF | ≤ 0.25 |
| DIRC | ≤ 0.25 |
| YWRC | ≤ 0.25 |
| RFPR | ≤ 0.25 |
| EYCW | ≤ 0.25 |
| FHGK | ≤ 0.25 |
| EVPC | ≤ 0.25 |
| KVEV | ≤ 0.25 |
| MDPV | ≤ 0.25 |
| AFPS | ≤ 0.25 |
| LFRW | ≤ 0.25 |
| AWDP | ≤ 0.25 |
| LWGA | ≤ 0.25 |

| Variant | enrichment ratio |
| --- | --- |
| GFSH | ≤ 0.25 |
| QKGT | ≤ 0.25 |
| YQHQ | ≤ 0.25 |
| HWYV | ≤ 0.25 |
| HLGG | ≤ 0.25 |
| AKWT | ≤ 0.25 |
| QNLY | ≤ 0.25 |
| RPAP | ≤ 0.25 |
| VKQK | ≤ 0.25 |
| FQYA | ≤ 0.25 |
| NCWP | ≤ 0.25 |
| HMII | ≤ 0.25 |
| HLRF | ≤ 0.25 |
| DTVG | ≤ 0.25 |
| DDCT | ≤ 0.25 |
| VKND | ≤ 0.25 |
| WTRT | ≤ 0.25 |
| QEIR | ≤ 0.25 |
| VNYP | ≤ 0.25 |
| QDHI | ≤ 0.25 |
| KRYI | ≤ 0.25 |
| GHHK | ≤ 0.25 |
| RHVV | ≤ 0.25 |
| GTAF | ≤ 0.25 |
| MCEP | ≤ 0.25 |
| HQRE | ≤ 0.25 |

| Variant | enrichment ratio |
| --- | --- |
| VMYQ | ≤ 0.25 |
| YGWD | ≤ 0.25 |
| TMTE | 3.5 |
| HTRT | ≤ 0.25 |
| ERGY | ≤ 0.25 |
| KVRA | ≤ 0.25 |
| GEAV | 8.19 |
| THKT | ≤ 0.25 |
| MTDS | ≤ 0.25 |
| PAWW | ≤ 0.25 |
| VIWT | ≤ 0.25 |
| IHAC | ≤ 0.25 |
| RAPL | ≤ 0.25 |
| TWAI | ≤ 0.25 |
| IMTD | 2.94 |
| WQPQ | ≤ 0.25 |
| SRVE | ≤ 0.25 |
| HLSC | ≤ 0.25 |
| WHYA | ≤ 0.25 |
| GMSD | ≤ 0.25 |
| YGSW | ≤ 0.25 |
| KVDF | ≤ 0.25 |
| SLPC | ≤ 0.25 |
| SQGT | 2.21 |
| ADYI | ≤ 0.25 |
| DYCK | ≤ 0.25 |

| Variant | enrichment ratio |
| --- | --- |
| PLKH | ≤ 0.25 |
| WRGI | ≤ 0.25 |
| QRGL | ≤ 0.25 |
| TNLM | 2.74 |
| NTTG | ≤ 0.25 |
| KPSD | ≤ 0.25 |
| TRGQ | 0.26 |
| GKSK | ≤ 0.25 |
| QITN | ≤ 0.25 |
| QSHK | ≤ 0.25 |
| PIIT | ≤ 0.25 |
| NILS | 3.43 |
| VNRA | ≤ 0.25 |
| RIRA | ≤ 0.25 |
| HKTL | ≤ 0.25 |
| EQPH | ≤ 0.25 |
| RRAM | ≤ 0.25 |
| YNCD | 0.422 |
| YIPM | ≤ 0.25 |
| VVCN | ≤ 0.25 |
| HCLK | ≤ 0.25 |
| TVDW | ≤ 0.25 |
| QAPK | ≤ 0.25 |
| WMAM | ≤ 0.25 |
| HPGW | ≤ 0.25 |
| WFDK | ≤ 0.25 |

| Variant | enrichment ratio |
| --- | --- |
| DQHV | ≤ 0.25 |
| ENQS | ≤ 0.25 |
| KCMI | ≤ 0.25 |
| FDML | ≤ 0.25 |
| VMLD | ≤ 0.25 |
| LAHE | ≤ 0.25 |
| ISEW | ≤ 0.25 |
| TECQ | 12.3 |
| GFYG | ≤ 0.25 |
| SFDE | ≤ 0.25 |
| PKCD | ≤ 0.25 |
| MMSW | ≤ 0.25 |
| AMPA | ≤ 0.25 |
| LISV | ≤ 0.25 |
| IREH | ≤ 0.25 |
| NFYV | ≤ 0.25 |
| GFAI | ≤ 0.25 |
| DTRD | ≤ 0.25 |
| AWNV | ≤ 0.25 |
| QKHH | ≤ 0.25 |
| GQFI | ≤ 0.25 |
| WPTV | ≤ 0.25 |
| FRDH | ≤ 0.25 |
| MLFH | ≤ 0.25 |
| TCYA | 1.75 |
| YTLY | 1.95 |

| Variant | enrichment ratio |
| --- | --- |
| FMSH | ≤ 0.25 |
| ASIV | 11.4 |
| IPPG | ≤ 0.25 |
| SRSG | ≤ 0.25 |
| MMSQ | ≤ 0.25 |
| RMDH | ≤ 0.25 |
| PPPT | ≤ 0.25 |
| RVAA | ≤ 0.25 |
| TARG | ≤ 0.25 |
| NEHD | ≤ 0.25 |
| RDLE | ≤ 0.25 |
| AQWS | ≤ 0.25 |
| RPVS | ≤ 0.25 |
| HVDR | ≤ 0.25 |
| CGFL | ≤ 0.25 |
| IKYT | ≤ 0.25 |
| STTH | 9.19 |
| CVLF | ≤ 0.25 |
| WDNM | ≤ 0.25 |
| ANGP | ≤ 0.25 |
| EMSG | ≤ 0.25 |
| KSLE | ≤ 0.25 |
| PTRK | ≤ 0.25 |
